45 compounds from publication PMC4336329 (PLoS ONE, 2015) can be followed below.

The campaign covered roughly 310,000 compounds. About 14,000 (4.5%) showed an effect of 50% or more. Effects have a minus sign here. The list shows a part of the results.
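Note: peak tail current of the secondary pulse compared with the same well before compound.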

This experiment deals with human ether-à-go-go-related gene (hERG) potassium channel (human, UniProt Q12809). As to the kind of experiment: primary screen, population patch clamp on CHO cells stably expressing hERG.
Sequence of human ether-à-go-go-related gene (hERG) potassium channel (Q12809 whole entry, looked up): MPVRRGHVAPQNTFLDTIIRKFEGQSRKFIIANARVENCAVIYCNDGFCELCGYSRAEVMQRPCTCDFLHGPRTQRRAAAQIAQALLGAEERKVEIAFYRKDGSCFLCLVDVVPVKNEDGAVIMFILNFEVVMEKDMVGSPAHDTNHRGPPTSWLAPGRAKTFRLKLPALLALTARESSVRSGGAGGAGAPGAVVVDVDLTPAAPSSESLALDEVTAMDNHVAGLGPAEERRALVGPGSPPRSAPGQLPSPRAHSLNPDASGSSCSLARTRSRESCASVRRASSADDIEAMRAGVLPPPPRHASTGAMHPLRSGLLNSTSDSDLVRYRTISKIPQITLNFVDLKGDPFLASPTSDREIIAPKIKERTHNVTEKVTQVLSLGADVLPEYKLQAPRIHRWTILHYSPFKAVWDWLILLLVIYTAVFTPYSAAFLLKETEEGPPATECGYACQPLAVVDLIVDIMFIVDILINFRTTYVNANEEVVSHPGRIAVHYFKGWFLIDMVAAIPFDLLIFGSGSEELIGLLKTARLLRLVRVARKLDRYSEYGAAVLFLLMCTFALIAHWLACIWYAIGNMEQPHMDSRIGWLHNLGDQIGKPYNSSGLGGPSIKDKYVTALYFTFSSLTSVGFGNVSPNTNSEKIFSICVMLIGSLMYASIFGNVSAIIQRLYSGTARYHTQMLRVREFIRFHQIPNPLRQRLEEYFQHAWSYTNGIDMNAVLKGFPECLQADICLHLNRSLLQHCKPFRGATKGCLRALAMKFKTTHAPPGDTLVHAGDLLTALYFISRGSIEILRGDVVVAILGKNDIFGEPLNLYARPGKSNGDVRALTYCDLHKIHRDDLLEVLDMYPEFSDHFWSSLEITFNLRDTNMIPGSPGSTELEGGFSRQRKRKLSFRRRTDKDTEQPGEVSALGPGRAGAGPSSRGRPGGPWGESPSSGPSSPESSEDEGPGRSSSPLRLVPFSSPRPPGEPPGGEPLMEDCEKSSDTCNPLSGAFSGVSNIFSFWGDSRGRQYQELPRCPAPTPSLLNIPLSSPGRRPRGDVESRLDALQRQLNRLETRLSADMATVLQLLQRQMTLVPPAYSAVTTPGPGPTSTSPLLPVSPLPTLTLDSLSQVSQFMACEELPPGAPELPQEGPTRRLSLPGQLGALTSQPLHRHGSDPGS
`N#CC1(NC(=O)COC(=O)c2ncc(Cl)c(Cl)c2Cl)CCCCC1`: the “hERG current change (%, negative = inhibition) at 10uM” value is on record as -22.3%.
The result for `CCOC(=O)c1cc(-c2ccc(F)cc2)n(CC(=O)NCc2ccccn2)c1C` reads 5.76%.
Then `CCOC(=O)N1CCN(C(=O)CN(c2cccc(C)c2)S(=O)(=O)c2ccc(C)cc2)CC1`, with -39.7%; and `CNC(=O)C(=O)N/N=C/c1ccccn1`, with 20.5%.
Then `CCOC(=O)N1CCN(C(=S)NC(=O)c2ccnn2C)CC1`, with 15.8%; and `O=C(OC(C(=O)NCc1ccc2c(c1)OCO2)c1ccc(Cl)cc1)c1ccco1` (stereo not drawn), with -23%; and `S=C(Nc1cccc(Cl)c1Cl)N1CCCC1`, with 17.9%.
On to `Cc1ccc(OCCOc2cccc3ccc(C)nc23)c([N+](=O)[O-])c1.O=C(O)C(=O)O`, for which the “hERG current change (%, negative = inhibition) at 10uM” value was -10.7%.
In the case of `CC1CC(c2ccccc2)n2nc(NC(=O)c3cccs3)nc2N1` (stereo not drawn), the “hERG current change (%, negative = inhibition) at 10uM” value was 16.6%.
`O=C(NC(Cc1ccccc1)C(=O)N1CCN(c2ccccn2)CC1)c1ccco1` (stereo not drawn): the “hERG current change (%, negative = inhibition) at 10uM” value is listed as -15.9%.
The result for `O=C(NC1CCN(C(=S)NCc2ccco2)CC1)NC12CC3CC(CC(C3)C1)C2` reads 5.73%.
For `CC12CCCc3c(O)cc(=O)n(c31)-c1ccccc12` (stereo not drawn), the “hERG current change (%, negative = inhibition) at 10uM” value is on record as -1.22%.
`Cc1ccc(C(=O)CC2(O)C(=O)N(C)c3ccc(Br)cc32)c(C)c1` (stereo not drawn): the “hERG current change (%, negative = inhibition) at 10uM” value is recorded as -12.7%.
Turning to `N#CSC(c1ccccc1)c1nc2ccccc2[nH]c1=O` (stereo not drawn), the “hERG current change (%, negative = inhibition) at 10uM” value is recorded as 15.8%.
The result for `Cc1cccc(N(C(=O)c2ccc(Cl)cc2)C2CS(=O)(=O)CC2OC(=O)c2ccc(Cl)cc2)c1` (stereo not drawn) reads 11.1%; that for `COc1ccc(NC(=O)CCNS(=O)(=O)c2ccc3c(c2)c(=O)n(C)c(=O)n3C)cc1`, -2.03%.
Then `CCN(CC)CCN1C(=O)c2ccccc2NC1c1ccc(C)cc1` (stereo not drawn), with -66.1%.
Then `O=C(Nc1nc(=O)c2ccccc2s1)c1ccc(F)cc1`, with 11.5%; and `COc1ccc(OCc2ccc(C(=O)NN)cc2)cc1`, with -8.32%.
For `CCOC(=O)C1(CCCc2ccccc2)CCN(C(=O)c2cnc(C)cn2)CC1`, the “hERG current change (%, negative = inhibition) at 10uM” value is given as -39.8%.
As for `O=C(c1c(F)cccc1F)N1CCN(CCOc2ccccc2)CC1`, the “hERG current change (%, negative = inhibition) at 10uM” value is listed as -8.2%.
The result for `C=CCn1c(Sc2nncn2C)nc2c1c(=O)[nH]c(=O)n2C` reads 11.8%; that for `C/C(=N/NC(=O)c1cc(C)[nH]n1)c1ccncc1`, -27.4%.
For the compound `O=C(Cn1c(=O)n(-c2cccc(Cl)c2)c(=O)n1CC(=O)N1CCCCC1)N1CCCCC1`, the “hERG current change (%, negative = inhibition) at 10uM” value was found to be 4.64%.
As to `O=C(NC(=S)Nc1ccccc1)c1cncc(C#Cc2ccccc2)c1`, the “hERG current change (%, negative = inhibition) at 10uM” value is listed as 16.5%.
On to `CN(C)C1CCN(C(=O)c2cccc(OC3CCN(S(=O)(=O)N(C)C)CC3)c2)C1` (stereo not drawn), for which the “hERG current change (%, negative = inhibition) at 10uM” value is on record as 23.9%.
The result for `COc1ccc(C(=O)OCC(=O)NCc2ccc3c(c2)OCO3)cc1[N+](=O)[O-]` reads 9.98%; that for `C/C(=N/NC(=O)c1ccc(Br)s1)c1cccnc1`, -20.8%; that for `CCN(CC(=O)Nc1ccc2c(c1)OCCO2)c1nc(-c2cccnc2)nc2ccccc12`, -39.1%.
The result for `COc1cccc(NC(=S)N2CCCC2c2ccc(OC)c(OC)c2)c1` (stereo not drawn) reads 1.24%; that for `Cc1cc2oc3c(c(=O)c2cc1C)C(c1ccc(F)cc1)N(CCCN1CCOCC1)C3=O` (stereo not drawn), -22.8%; that for `Cl.O=[N+]([O-])c1ccc(OCC(O)CNC2CCCC2)cc1` (stereo not drawn), -76.2%.
Then `COc1ccccc1CNC(=O)Cn1ccc2cc(S(=O)(=O)N3CCCC3)ccc21`, with -3.32%; and `O=S(=O)(Nc1nc2ccccc2nc1NCc1ccco1)c1ccccc1`, with 7.96%.
For `c1ccc(-c2csc(-c3ccncc3)n2)cc1`, the “hERG current change (%, negative = inhibition) at 10uM” value is listed as -43.2%.
Take `CCc1ccc(NC(=O)Nc2ccc3c(c2)N(C)C(=O)CS3)cc1`: the “hERG current change (%, negative = inhibition) at 10uM” value came out at 7.64%.
Then `CCCCn1c(CN2CCN(C(=O)OCC)CC2)nc2c1c(=O)[nH]c(=O)n2C`, with 6.72%.
Regarding `COc1ccc(N/C(N)=N/c2nc(C)cc(=O)[nH]2)cc1`, the “hERG current change (%, negative = inhibition) at 10uM” value stood at 8.38%.
The result for `CCC(CO)NC1=C([N+](=O)[O-])C(=O)CC(C)(C)C1` (stereo not drawn) reads 5.24%; that for `Cc1ccc(NC(=S)NC(=O)c2ccc(-c3ccccc3)cc2)cc1`, -9.58%.
Then `Cc1cc(C)n(-c2ccc(F)cc2CN2CCN(C3CCCC3)C(CCO)C2)n1` (stereo not drawn), with -24.2%.
Take `Cc1ccccc1CN1[C@@H](CC2CCCCC2)COCCS1(=O)=O`: the “hERG current change (%, negative = inhibition) at 10uM” value is listed as -10.8%.
Then `CCCNC(=S)N(Cc1cc2cc(C)ccc2n2nnnc12)CC(C)(C)CN(C)C`, with 11.4%; and `Cc1ccccc1C(=O)N1c2ccccc2OCC1C(C)(C)C` (stereo not drawn), with 14.9%; and `Cc1ccc(-c2ccc(CCC(=O)O)n2-c2ccc(C(=O)O)cc2)cc1`, with 16.8%.
